# Laboratory results as given in the supplement of paper PMC8728848.
# Some of the results follow.
# B1: Apa (Mycobacterium tuberculosis), Rv1860 (protein)
# chain: MHQVDPNLTRRKGRLAALAIAAMASASLVTVAVPATANADPEPAPPVPTTAASPPSTAAAPPAPATPVAPPPPAAANTPNAQPGDPNAAPPPADPNAPPPPVIAPNAPQPVRIDNPVGGFSFALPAGWVESDAAHFDYGSALLSKTTGDPPFPGQPPPVANDTRIVLGRLDQKLYASAEATDSKAAARLGSDMGEFYMPYPGTRINQETVSLDANGVSGSASYYEVKFSDPSKPNGQIWTGVIGSPAANAPDAGPPQRWFVVWLGTANNPVDKGAAKALAESIRPLVAPPPAPAPAPAEPAPAPAPAGEVAPTPTTPTPQRTLPA
# Experiments:
# Test in all cases: glycan array binding signal (z-score within array); higher = stronger binding
# Conditions in all cases: glycan notation: IUPAC condensed, linker removed
# [1] = target: Neu5Ac(a2-3)Gal
# In short: (§1)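 From the Consortium for Functional Glycomics database, 3228 arrays were curated, keeping only those whose protein sequence was available. Binding is given as a within-array Z-score averaged across arrays sharing a protein sequence and across linkers. Negative Z-scores can be read as non-binding.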
# [2] = target: Neu5Ac(a2-3)Gal(b1-3)GalNAc
# In short: as §1
# [3] = target: Neu5Ac(a2-3)Gal(b1-3)GalNAc(b1-3)Gal(a1-4)Gal(b1-4)Glc
# In short: as §1
# [4] = target: Neu5Ac(a2-3)Gal(b1-3)GalNAc(b1-4)[Neu5Ac(a2-3)]Gal(b1-4)Glc
# In short: as §1
# [5] = target: Neu5Ac(a2-3)Gal(b1-3)GalNAc(b1-4)[Neu5Ac(a2-8)Neu5Ac(a2-3)]Gal(b1-4)Glc
# In short: as §1
# [6] = target: Neu5Ac(a2-3)Gal(b1-3)GalNAc6S
# In short: as §1
# [7] = target: Neu5Ac(a2-3)Gal(b1-3)GlcNAc
# In short: as §1
# [8] = target: Neu5Ac(a2-3)Gal(b1-3)GlcNAc(b1-2)Man
# In short: as §1
# [9] = target: Neu5Ac(a2-3)Gal(b1-3)GlcNAc(b1-2)Man(a1-3)[GlcNAc(b1-4)][Neu5Ac(a2-3)Gal(b1-3)GlcNAc(b1-2)Man(a1-6)]Man(b1-4)GlcNAc(b1-4)GlcNAc
# In short: as §1
# [10] = target: Neu5Ac(a2-3)Gal(b1-3)GlcNAc(b1-2)Man(a1-3)[Neu5Ac(a2-3)Gal(b1-3)GlcNAc(b1-2)Man(a1-6)]Man(b1-4)GlcNAc(b1-4)GlcNAc
# In short: as §1
# [11] = target: Neu5Ac(a2-3)Gal(b1-3)GlcNAc(b1-2)[Neu5Ac(a2-3)Gal(b1-3)GlcNAc(b1-4)]Man(a1-6)[Neu5Ac(a2-3)Gal(b1-3)GlcNAc(b1-2)Man(a1-3)]Man(b1-4)GlcNAc(b1-4)GlcNAc
# In short: as §1
# [12] = target: Neu5Ac(a2-3)Gal(b1-3)GlcNAc(b1-3)Gal(b1-3)GlcNAc
# In short: as §1
# [13] = target: Neu5Ac(a2-3)Gal(b1-3)GlcNAc(b1-3)Gal(b1-4)GlcNAc
# In short: as §1
# [14] = target: Neu5Ac(a2-3)Gal(b1-3)GlcNAc(b1-3)GalNAc
# In short: as §1
# [15] = target: Neu5Ac(a2-3)Gal(b1-3)GlcNAc(b1-4)Gal(b1-4)Glc
# In short: as §1
# [16] = target: Neu5Ac(a2-3)Gal(b1-3)GlcNAc(b1-6)GalNAc
# In short: as §1
# [17] = target: Neu5Ac(a2-3)Gal(b1-3)GlcNAc6S
# In short: as §1
# [18] = target: Neu5Ac(a2-3)Gal(b1-3)[Fuc(a1-4)]GlcNAc
# In short: as §1
# [19] = target: Neu5Ac(a2-3)Gal(b1-3)[Fuc(a1-4)]GlcNAc(b1-3)Gal(b1-3)[Fuc(a1-4)]GlcNAc
# In short: as §1
# [20] = target: Neu5Ac(a2-3)Gal(b1-3)[Fuc(a1-4)]GlcNAc(b1-3)Gal(b1-4)[Fuc(a1-3)]GlcNAc
# In short: as §1
# [21] = target: Neu5Ac(a2-3)Gal(b1-3)[GlcNAc(b1-6)]GalNAc
# In short: as §1
# [22] = target: Neu5Ac(a2-3)Gal(b1-3)[Neu5Ac(a2-6)]GalNAc
# In short: as §1
# [23] = target: Neu5Ac(a2-3)Gal(b1-3)[Neu5Ac(a2-6)]GlcNAc(b1-3)[Fuc(a1-3)[Gal(b1-4)]GlcNAc(b1-6)]Gal(b1-4)Glc
# In short: as §1
# [24] = target: Neu5Ac(a2-3)Gal(b1-3)]Neu5Ac(a2-3)Gal(b1-4)]GlcNAc
# In short: as §1
# [25] = target: Neu5Ac(a2-3)Gal(b1-4)Glc
# In short: as §1
# [26] = target: Neu5Ac(a2-3)Gal(b1-4)GlcNAc
# In short: as §1
# [27] = target: Neu5Ac(a2-3)Gal(b1-4)GlcNAc(b1-2)Man
# In short: as §1
# [28] = target: Neu5Ac(a2-3)Gal(b1-4)GlcNAc(b1-2)Man(a1-3)[GlcNAc(b1-4)][Neu5Ac(a2-3)Gal(b1-4)GlcNAc(b1-2)Man(a1-6)]Man(b1-4)GlcNAc(b1-4)GlcNAc
# In short: as §1
# [29] = target: Neu5Ac(a2-3)Gal(b1-4)GlcNAc(b1-2)Man(a1-3)[Neu5Ac(a2-3)Gal(b1-4)GlcNAc(b1-2)Man(a1-6)]Man(b1-4)GlcNAc(b1-4)GlcNAc
# In short: as §1
# [30] = target: Neu5Ac(a2-3)Gal(b1-4)GlcNAc(b1-2)Man(a1-3)[Neu5Ac(a2-3)Gal(b1-4)GlcNAc(b1-2)Man(a1-6)]Man(b1-4)GlcNAc(b1-4)[Fuc(a1-6)]GlcNAc
# In short: as §1
# [31] = target: Neu5Ac(a2-3)Gal(b1-4)GlcNAc(b1-2)Man(a1-3)[Neu5Ac(a2-6)Gal(b1-4)GlcNAc(b1-2)Man(a1-6)]Man(b1-4)GlcNAc(b1-4)GlcNAc
# In short: as §1
# [32] = target: Neu5Ac(a2-3)Gal(b1-4)GlcNAc(b1-2)[Neu5Ac(a2-3)Gal(b1-4)GlcNAc(b1-4)]Man(a1-3)[GlcNAc(b1-4)][Neu5Ac(a2-3)Gal(b1-4)GlcNAc(b1-2)[Neu5Ac(a2-3)Gal(b1-4)GlcNAc(b1-6)]Man(a1-6)]Man(b1-4)GlcNAc(b1-4)GlcNAc
# In short: as §1
# [33] = target: Neu5Ac(a2-3)Gal(b1-4)GlcNAc(b1-2)[Neu5Ac(a2-3)Gal(b1-4)GlcNAc(b1-4)]Man(a1-3)[GlcNAc(b1-4)][Neu5Ac(a2-3)Gal(b1-4)GlcNAc(b1-4)Man(a1-6)]Man(b1-4)GlcNAc(b1-4)GlcNAc
# In short: as §1
# [34] = target: Neu5Ac(a2-3)Gal(b1-4)GlcNAc(b1-2)[Neu5Ac(a2-3)Gal(b1-4)GlcNAc(b1-6)]Man(a1-6)[Neu5Ac(a2-3)Gal(b1-4)GlcNAc(b1-2)Man(a1-3)][GlcNAc(b1-4)]Man(b1-4)GlcNAc(b1-4)GlcNAc
# In short: as §1
# [35] = target: Neu5Ac(a2-3)Gal(b1-4)GlcNAc(b1-3)Gal
# In short: as §1
# [36] = target: Neu5Ac(a2-3)Gal(b1-4)GlcNAc(b1-3)Gal(b1-3)GlcNAc
# In short: as §1
# [37] = target: Neu5Ac(a2-3)Gal(b1-4)GlcNAc(b1-3)Gal(b1-4)GlcNAc
# In short: as §1
# [38] = target: Neu5Ac(a2-3)Gal(b1-4)GlcNAc(b1-3)Gal(b1-4)GlcNAc(b1-2)Man(a1-3)[Neu5Ac(a2-3)Gal(b1-4)GlcNAc(b1-3)Gal(b1-4)GlcNAc(b1-2)Man(a1-6)]Man(b1-4)GlcNAc(b1-4)GlcNAc
# In short: as §1
# [39] = target: Neu5Ac(a2-3)Gal(b1-4)GlcNAc(b1-3)Gal(b1-4)GlcNAc(b1-3)Gal(b1-4)GlcNAc
# In short: as §1
# [40] = target: Neu5Ac(a2-3)Gal(b1-4)GlcNAc(b1-3)Gal(b1-4)GlcNAc(b1-3)Gal(b1-4)GlcNAc(b1-2)Man(a1-3)[Neu5Ac(a2-3)Gal(b1-4)GlcNAc(b1-3)Gal(b1-4)GlcNAc(b1-3)Gal(b1-4)GlcNAc(b1-2)Man(a1-6)]GalNAc
# In short: as §1
# [41] = target: Neu5Ac(a2-3)Gal(b1-4)GlcNAc(b1-3)Gal(b1-4)GlcNAc(b1-3)GalNAc
# In short: as §1
# [42] = target: Neu5Ac(a2-3)Gal(b1-4)GlcNAc(b1-3)Gal(b1-4)GlcNAc(b1-3)[Neu5Ac(a2-3)Gal(b1-4)GlcNAc(b1-3)Gal(b1-4)GlcNAc(b1-6)]GalNAc
# In short: as §1
# [43] = target: Neu5Ac(a2-3)Gal(b1-4)GlcNAc(b1-3)Gal(b1-4)GlcNAc(b1-6)[Gal(b1-3)]GalNAc
# In short: as §1
# [44] = target: Neu5Ac(a2-3)Gal(b1-4)GlcNAc(b1-3)Gal(b1-4)[Fuc(a1-3)]GlcNAc
# In short: as §1
# [45] = target: Neu5Ac(a2-3)Gal(b1-4)GlcNAc(b1-3)GalNAc
# In short: as §1
binder,measurement,setting,value
B1,glycan array binding signal (z-score),[1],-0.445
same,glycan array binding signal (z-score),[2],-0.28
same,glycan array binding signal (z-score),[3],0.043
same,glycan array binding signal (z-score),[4],0.12
same,glycan array binding signal (z-score),[5],0.05
same,glycan array binding signal (z-score),[6],-0.205
same,glycan array binding signal (z-score),[7],-0.392
same,glycan array binding signal (z-score),[8],-0.346
same,glycan array binding signal (z-score),[9],0.022
same,glycan array binding signal (z-score),[10],0.256
same,glycan array binding signal (z-score),[11],0.309
same,glycan array binding signal (z-score),[12],-0.394
same,glycan array binding signal (z-score),[13],-0.493
same,glycan array binding signal (z-score),[14],-0.423
same,glycan array binding signal (z-score),[15],0.31
same,glycan array binding signal (z-score),[16],-0.143
same,glycan array binding signal (z-score),[17],1.68
same,glycan array binding signal (z-score),[18],-0.536
same,glycan array binding signal (z-score),[19],0.278
same,glycan array binding signal (z-score),[20],-0.139
same,glycan array binding signal (z-score),[21],-0.268
same,glycan array binding signal (z-score),[22],-0.234
same,glycan array binding signal (z-score),[23],-0.364
same,glycan array binding signal (z-score),[24],-0.37
same,glycan array binding signal (z-score),[25],-0.081
same,glycan array binding signal (z-score),[26],-0.293
same,glycan array binding signal (z-score),[27],1.24
same,glycan array binding signal (z-score),[28],-0.051
same,glycan array binding signal (z-score),[29],-0.603
same,glycan array binding signal (z-score),[30],0.28
same,glycan array binding signal (z-score),[31],-0.452
same,glycan array binding signal (z-score),[32],-0.443
same,glycan array binding signal (z-score),[33],-0.558
same,glycan array binding signal (z-score),[34],-0.538
same,glycan array binding signal (z-score),[35],-0.531
same,glycan array binding signal (z-score),[36],-0.635
same,glycan array binding signal (z-score),[37],-0.562
same,glycan array binding signal (z-score),[38],-0.312
same,glycan array binding signal (z-score),[39],-0.629
same,glycan array binding signal (z-score),[40],-0.042
same,glycan array binding signal (z-score),[41],-0.254
same,glycan array binding signal (z-score),[42],-0.438
same,glycan array binding signal (z-score),[43],-0.316
same,glycan array binding signal (z-score),[44],-0.539
same,glycan array binding signal (z-score),[45],-0.438
